The RNAGym collection of RNA variant scans (doi:10.1073/pnas.2313332121)
Variants at the background level are over-represented here.

B1: TPR 5TU (parent)
chain: GGAUCUUCUCGAUCUAACAAAAAAGACAAAUCUGCCACAAAGCUUGAGAGCAUCUUCGGAUGCAGAGGCGGCAGCCUUCGGUGGCGCGAUAGCGCCAACGUUCUCAACUAUGACACGCAAAACGCGUGCUCCGUUGAAUGGAGUUUAUCAUG

Variants of: B1
Assay: polymerase ribozyme fitness, log enrichment relative to wild type (log ratio); higher = more active; in vitro selection for triplet polymerase activity
In short: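 Each subunit of a heterodimeric triplet polymerase ribozyme was represented by a PCR-built, transcribed mutant library that underwent triplicate single-round in vitro selection with frozen incubation at −7 °C. Extended constructs were recovered by gel excision, streptavidin-bead capture and RT-PCR, and Illumina sequencing of input and output libraries kept genotypes with ≥10 input reads and ≥1 read per output. Fitness is the logarithm of genotype enrichment relative to wild-type enrichment, from inverse-variance-weighted replicate averages, with a logarithm base of 2.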

A26C A49U G59A and G25U G50C G68C G80C G81U C85U C114U G141U cannot be ordered by “polymerase ribozyme fitness (log ratio)” value: ≤ -4.2 for the first, ≤ -4.2 for the second.

A26U C27G U55A G83A C125U and G25U U56A G84U C95A C96U A119C G141U U148C C149A cannot be ordered by “polymerase ribozyme fitness (log ratio)” value: ≤ -4.2 for the first, ≤ -4.2 for the second.

A26G C38A A60U A64C C76U and A26G C27U G84A U90G A142C G152C cannot be ordered by “polymerase ribozyme fitness (log ratio)” value: ≤ -4.2 for the first, ≤ -4.2 for the second.

A26G A28U U44C C72U C85G C96U and A26G G67C A119C U134G U135A cannot be ordered by “polymerase ribozyme fitness (log ratio)” value: ≤ -4.2 for the first, ≤ -4.2 for the second.

A26U A47G G48U U53A C69G C85U G128A C129A and A26G C57U G58A C87A cannot be ordered by “polymerase ribozyme fitness (log ratio)” value: ≤ -4.2 for the first, ≤ -4.2 for the second.

First: A26G C76U C99U U127A
Second: A26G G92U
The “polymerase ribozyme fitness (log ratio)” value of the first is lower: ≤ -4.2 for the first, -3.31 for the second.

G25C G50U A91U and A26G A49C G88U A107C A121C G126U U146G cannot be ordered by “polymerase ribozyme fitness (log ratio)” value: ≤ -4.2 for the first, ≤ -4.2 for the second.

G25U A37U G58A G86C G92A and A26U A41C G68C U78G U90C A91U A107U U109C C149G cannot be ordered by “polymerase ribozyme fitness (log ratio)” value: ≤ -4.2 for the first, ≤ -4.2 for the second.

G25U A138C and A26U C27U G84A G88A U101A cannot be ordered by “polymerase ribozyme fitness (log ratio)” value: ≤ -4.2 for the first, ≤ -4.2 for the second.

G25U G50U G80C C116A G152U and A26U A30U C85U G133C cannot be ordered by “polymerase ribozyme fitness (log ratio)” value: ≤ -4.2 for the first, ≤ -4.2 for the second.

A26U A41G U53A U55A A91U and A26C A41G U77G cannot be ordered by “polymerase ribozyme fitness (log ratio)” value: ≤ -4.2 for the first, ≤ -4.2 for the second.

G25U U45A G68C C87A A107C U148A and A26G G42C C57A U134A A138U cannot be ordered by “polymerase ribozyme fitness (log ratio)” value: ≤ -4.2 for the first, ≤ -4.2 for the second.

A26U A91G G140C C149A and G25U G42A C87G cannot be ordered by “polymerase ribozyme fitness (log ratio)” value: ≤ -4.2 for the first, ≤ -4.2 for the second.

A26C G42U C75G G86U U146G U151G and A26C U44A U55G G86A G88C cannot be ordered by “polymerase ribozyme fitness (log ratio)” value: ≤ -4.2 for the first, ≤ -4.2 for the second.

A26C C36U G58C C95U A110U U127G A150U and A26C A41U C76U U102G G124A cannot be ordered by “polymerase ribozyme fitness (log ratio)” value: ≤ -4.2 for the first, ≤ -4.2 for the second.

A26C A37G A52U C93A A110G C118U G136C and A26C C51U A66G A97G U101G U144G cannot be ordered by “polymerase ribozyme fitness (log ratio)” value: ≤ -4.2 for the first, ≤ -4.2 for the second.

A26G G50U U56A C57U C85U U90G U102G and G25U C36U C72G cannot be ordered by “polymerase ribozyme fitness (log ratio)” value: ≤ -4.2 for the first, ≤ -4.2 for the second.

A26U A49G U101G A120G A147C and G25U C36U U61G G65C A73G C96A U127G G143C cannot be ordered by “polymerase ribozyme fitness (log ratio)” value: ≤ -4.2 for the first, ≤ -4.2 for the second.

First: G25U U61G
Second: G25C G48C A66G C93A
The “polymerase ribozyme fitness (log ratio)” value of the first is higher: -2.3 for the first, ≤ -4.2 for the second.

A26C U55A C75A G80C G94A C105A and A26C A41C A49C G62C A138G cannot be ordered by “polymerase ribozyme fitness (log ratio)” value: ≤ -4.2 for the first, ≤ -4.2 for the second.

A26U A39C C54U A91G A107C and A26U C35U C76A U78G cannot be ordered by “polymerase ribozyme fitness (log ratio)” value: ≤ -4.2 for the first, ≤ -4.2 for the second.

A26G A47G G58C G67C C93A G112A A113C and A26C A40G U61A A66C C72A C79G cannot be ordered by “polymerase ribozyme fitness (log ratio)” value: ≤ -4.2 for the first, ≤ -4.2 for the second.

First: G25U A73G C87G
Second: A26C G100U
The “polymerase ribozyme fitness (log ratio)” value of the first is lower: ≤ -4.2 for the first, -4 for the second.

Going from G25U C51G G94C A106G C118G A147C to G25U C103G, the “polymerase ribozyme fitness (log ratio)” value rises from ≤ -4.2 to -3.2.

G25U C69G C85U G128A and A26U A49U U53G U61C A66U G94U C123A cannot be ordered by “polymerase ribozyme fitness (log ratio)” value: ≤ -4.2 for the first, ≤ -4.2 for the second.

G25U U77C C85U G117A A119C and A26U A28U G81C U90A cannot be ordered by “polymerase ribozyme fitness (log ratio)” value: ≤ -4.2 for the first, ≤ -4.2 for the second.

G25U A37C A64G G84A C99A U102G and A26G A73U C85A U151G cannot be ordered by “polymerase ribozyme fitness (log ratio)” value: ≤ -4.2 for the first, ≤ -4.2 for the second.

G25C U33G G83U G124C A137G U139A and A26G C36G G141U cannot be ordered by “polymerase ribozyme fitness (log ratio)” value: ≤ -4.2 for the first, ≤ -4.2 for the second.

A26U C27G C36G C85G and G25U A37C U45A U135A G140U cannot be ordered by “polymerase ribozyme fitness (log ratio)” value: ≤ -4.2 for the first, ≤ -4.2 for the second.

A26C U44A A49C G70A C87G C96U A113U G124U and A26G A40C C43U C57A U144G cannot be ordered by “polymerase ribozyme fitness (log ratio)” value: ≤ -4.2 for the first, ≤ -4.2 for the second.

G25U C57G A64C C105U A106U C116U and A26U A29G A41C C87A A115U cannot be ordered by “polymerase ribozyme fitness (log ratio)” value: ≤ -4.2 for the first, ≤ -4.2 for the second.

A26G A39U G50A C54G C69G A73C C93G G136C and A26U A64U C93A A106C A119G A138U cannot be ordered by “polymerase ribozyme fitness (log ratio)” value: ≤ -4.2 for the first, ≤ -4.2 for the second.

G25U A113C C114A and A26U A40C C76A G92C A121C cannot be ordered by “polymerase ribozyme fitness (log ratio)” value: ≤ -4.2 for the first, ≤ -4.2 for the second.

G25U C57A U61A C93A U148A and A26G C38A U53G C54G G86A C118G cannot be ordered by “polymerase ribozyme fitness (log ratio)” value: ≤ -4.2 for the first, ≤ -4.2 for the second.

A26C G50A G86A C96U A137G and G25U G59U G92C A138U cannot be ordered by “polymerase ribozyme fitness (log ratio)” value: ≤ -4.2 for the first, ≤ -4.2 for the second.

Compared with G25U G84A, A26C A52U G86U C99G A138G A150U is lower in “polymerase ribozyme fitness (log ratio)” value: -3.07 for the first, ≤ -4.2 for the second.

A26C U45G C69U G83A G88A A113U G141C and A26U A52U G92U A107G cannot be ordered by “polymerase ribozyme fitness (log ratio)” value: ≤ -4.2 for the first, ≤ -4.2 for the second.

A26C C51U A52C U55A A107G C123U and A26U C36U G42U C95G A138G cannot be ordered by “polymerase ribozyme fitness (log ratio)” value: ≤ -4.2 for the first, ≤ -4.2 for the second.

Compared with A26C C35A C51U A98U C108G U151G, A26G G59U is higher in “polymerase ribozyme fitness (log ratio)” value: ≤ -4.2 for the first, -3.78 for the second.

A26C G62U A64G C75A C85G U90G A97U C118G C125G and A26C A52C C54A C114A C129G U134A cannot be ordered by “polymerase ribozyme fitness (log ratio)” value: ≤ -4.2 for the first, ≤ -4.2 for the second.

A26U C36A U101A G143U U144A and A26G A29C G50A U90G cannot be ordered by “polymerase ribozyme fitness (log ratio)” value: ≤ -4.2 for the first, ≤ -4.2 for the second.

First: A26C C105U
Second: A26C G50U C54U C96G
The “polymerase ribozyme fitness (log ratio)” value of the first is higher: -2.13 for the first, -3.92 for the second.
